Data as given in PubChem BioAssay AID588855 (National Center for Advancing Translational Sciences (NCATS), 2011).
In all, about 410,000 compounds went through this assay and about 5,000 (1.2%) were called active. The shares of active, inactive and inconclusive entries below differ from those in the screen. Calls follow the shape of the dose curve; as a rule, active = well fitted inhibition curve with a large enough effect; inconclusive = small, poorly fitted or top-dose-only effect; inactive = no such curve, though single readings can be large or run the other way. Potencies beside an inconclusive call are fits to weak or partial responses and may not hold up.

test: qHTS for Inhibitors of TGF-b; conditions: HepG2 CAGA-GFP TGF-b/SMAD3 reporter, GFP fluorescence, 18 h, TGF-beta stimulated, 500 pg/mL final; series mostly up to 46.1 µM; also: nearly all actives have a fitted effect of over 65% in size
Outline: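 Inhibition was scored as loss of TGF-beta-induced (500 pg/mL final, 18 hours, 37 degrees C) GFP in HEPG2 cells carrying a CAGA-GFP reporter, in DMEM with 1% FBS. Well GFP was summed per cell; Activity was normalised to unstimulated and stimulated DMSO wells, then concentration-response fitting.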
Potency is read from the fitted curve at half-maximal effect; tags tell the direction and shape of the fitted curve.

| Structure (SMILES) | Potency |
| --- | --- |
| O=C(Nc1cccc(F)c1)/C(=C\c1cccnc1)NC(=O)c1ccco1 | inconclusive: 3.16 µM [inhibitor, single point] |
| OC(c1cccc(Cl)c1)c1ncc(-c2cccc(C(F)(F)F)c2)[nH]1 (stereo not given) | inconclusive: 35.5 µM [inhibitor, single point] |
| Nc1nc(NC(=O)C(Cl)(Cl)Cl)nn1-c1ccccc1 | inconclusive: 35.5 µM [inhibitor, single point] |
| Cc1cc(C(=O)NCc2cccnc2)cs1 | inconclusive: 11.2 µM [inhibitor, partial curve] |
| Cc1ccc(C(=O)NCC(c2ccc3c(c2)OCO3)N2CCN(c3ccc(F)cc3)CC2)cc1 (stereo not given) | inconclusive: 17.8 µM [inhibitor, partial curve, poor fit] |
| CC(=O)c1ccc(OC2(C)CCN(Cc3cccn3-c3nccs3)C2)cc1 (stereo not given) | inconclusive: 6.31 µM [inhibitor, single point] |
| Cc1cccc(Cn2cc(/C=C(/C#N)C(=O)Nc3cccc(Cl)c3)c3ccccc32)c1 | inconclusive: 5.01 µM [inhibitor, partial curve] |
| CCCOc1ccc(NC(=O)CC2C(=O)N(c3ccccc3)C(=O)N2Cc2ccc(F)cc2)cc1 (stereo not given) | active: 10 µM |
| COc1ccc(C)cc1NC(=O)Cc1csc(NC(=O)Nc2ccccc2OC)n1 | inconclusive: 35.5 µM [inhibitor, single point] |
| CCN(C(=O)c1cc2c(=O)oc3ccccc3c2s1)c1ccc(C)c(C)c1 | inconclusive: 5.01 µM [inhibitor, single point] |
| CCCCCCn1c(COc2ccccc2F)nnc1SCC(=O)NC1CCS(=O)(=O)C1 (stereo not given) | inconclusive: 22.4 µM [inhibitor, single point] |
| Cn1c(=O)c(C(=O)NNC(=O)c2ccccc2F)c(O)c2ccccc21 | inconclusive: 15.8 µM [inhibitor, partial curve, poor fit] |
| CCN(CC)S(=O)(=O)c1ccc(C(=O)NCCN2C(=O)S/C(=C\c3cccnc3)C2=O)cc1 | inactive |
| Cc1[nH]c2c(C)cccc2c1CCNC(=O)c1ccc2c(c1[N+](=O)[O-])C(=O)c1ccccc1C2=O | inconclusive: 22.4 µM [inhibitor, single point] |
| COc1cccc(-c2cc3nc(-c4ccccc4)cc(N4CCC5(CC4)OCCO5)n3n2)c1 | inactive |
| CCN(CC)C(=O)c1nc[nH]c1C(=O)N(C)Cc1ccccc1 | inconclusive: 7.08 µM [inhibitor, partial curve, poor fit] |
| CC(C)(C)OC(=O)N1CCCC(C(=O)Nc2ccc(C(=O)N3CCCCC3)cc2)C1 (stereo not given) | inconclusive: 3.98 µM [inhibitor, full curve, poor fit] |
| Cc1ccc(CN2[C@@H](CC(C)C)COCCS2(=O)=O)cc1 | inconclusive: 17.8 µM [inhibitor, single point] |
| COc1ccc(OC)c(C(=O)c2c(C)oc3cc(Br)c(O)c(CN(C)C)c23)c1 | inactive |
| CCn1c2ccccc2c2cc(NC(=O)c3cc(OC)cc(OC)c3)ccc21 | inconclusive: 1.78 µM [inhibitor, full curve, poor fit] |
| NC1=NC(=O)/C(=C\c2cccnc2)S1 | inconclusive: 11.2 µM [inhibitor, partial curve, poor fit] |
| CC[C@]1(C(=O)OC)[C@H]2C(=O)N(C)C(=O)[C@H]2[C@H]2CN=C(SCc3ccc(Cl)cc3)N21 | inactive |

| Structure (SMILES) | Potency |
| --- | --- |
| Cc1ccc(NC(=S)Nc2ccc(F)cc2)c(C)c1 | inactive |
| Cc1cc(C)cc(NC(=O)c2cc(C)nc3c2c(C)nn3-c2ccccc2)c1 | inactive |
| CCO[C@H]1OC(C(=O)O)=C[C@@H](c2ccc3c(c2)OCO3)[C@@H]1CCCO | inconclusive: 7.08 µM [inhibitor, partial curve, poor fit] |
| O=C(NCCC(=O)N1CCN(c2cccc(Cl)c2)CC1)c1ccc(Br)cc1 | inconclusive: 35.5 µM [inhibitor, single point] |
| CC(c1ccccc1)N1CCC(CNC(=S)Nc2cccc(Cl)c2)C1 (stereo not given) | inconclusive: 11.2 µM [inhibitor, partial curve, poor fit] |
| Cc1cc(Cl)ccc1NC(=S)Nc1ccccn1 | inconclusive: 7.08 µM [inhibitor, partial curve] |
| O=C(N/N=C/C=C/c1ccccc1)c1n[nH]c2c1CCC2 | inconclusive: 11.2 µM [inhibitor, single point] |
| Cn1cnc([N+](=O)[O-])c1Oc1cccc(O)c1 | inactive |
| C[C@H](NC(=O)[C@H]1N2C(=O)c3ccccc3C2SC1(C)C)C(=O)NCc1ccncc1 (stereo not given in full) | inactive |
| COc1ccc(NC(=O)c2ccc(-c3ccc(-c4noc(C)n4)cc3C)cc2)cc1N1CCN(C)CC1 | active: 17.8 µM |
| CN(C)C(CNC(=O)c1ccc(NS(=O)(=O)c2ccc3[nH]c(=O)[nH]c3c2)cc1)c1ccccc1 (stereo not given) | inconclusive: 17.8 µM [inhibitor, single point] |
| COc1ccc(-n2cnnc2SCC(=O)Nc2cc(S(=O)(=O)N3CCCCC3)ccc2C)cc1 | inconclusive: 2.82 µM [inhibitor, full curve, poor fit] |
| C=CCn1c(COc2ccc(F)cc2)nnc1SCC(=O)c1c[nH]c2c(CC)cccc12 | inactive |
| O=C(NC(=S)N1CCN(c2ccc(O)cc2)CC1)c1cccs1 | inconclusive: 25.1 µM [inhibitor, single point] |
| Cn1cc(Cl)c(C(=O)Nc2nccs2)n1 | inactive |
| Cc1cc(OCc2cc(C(=O)N(Cc3nccn3C)C(C)C)no2)cc(C)c1Cl | inconclusive: 15.8 µM [inhibitor, single point] |
| O=C(Cn1nc(-c2ccccc2)nc(Cc2ccccc2)c1=O)Nc1ccc(Cl)cc1 | inactive |
| CN(C)c1ccc(/C=N/NC(=O)c2ccco2)cc1 | inconclusive: 11.2 µM [inhibitor, partial curve, poor fit] |
| CCCc1[nH]c2ccc(C#N)cc2c1CCC | active: 20 µM |
| CN(CC(=O)Nc1ccc(Cl)c(Cl)c1)C(=O)CNC(=O)C1CCCCC1 | inconclusive: 17.8 µM [inhibitor, partial curve, poor fit] |
| CCN(C(=O)CSc1nnc(Cn2nnc3ccccc32)o1)c1nc(-c2ccccc2)cs1 | inactive |
| O=C(N/C=C/c1ccccc1)Nc1ccc(Cl)cc1 | inconclusive: 15.8 µM [inhibitor, single point] |

| Structure (SMILES) | Potency |
| --- | --- |
| COC(=O)c1ccc(NC(=O)C2CC3CCC2C3)cc1 (stereo not given) | inactive |
| CCCOc1ccc(NC(=O)CC2C(=O)N(c3ccc(C)cc3)C(=O)N2CCc2ccncc2)cc1 (stereo not given) | inconclusive: 25.1 µM [inhibitor, single point] |
| COc1ccc(Br)cc1/C(C)=N/NC1=NCCN1 | inconclusive: 35.5 µM [inhibitor, single point] |
| CCCCS(=O)(=O)c1oc(-c2cccs2)nc1S(=O)(=O)c1ccc(F)cc1 | active: 5.01 µM |
| O=C1CC(c2cc(F)cc(F)c2)c2cc3c(cc2N1)OCO3 (stereo not given) | inactive |
| Cc1cc(N2CCN(C(=O)c3ccco3)CC2)nc(-c2ccccc2)n1 | inactive |
| C#CCOc1nc2c(c(=O)n(C)c(=O)n2C)n1Cc1ccccc1 | inconclusive: 15.8 µM [inhibitor, partial curve, poor fit] |
| COc1ccc(S(=O)(=O)N(C)CC(=O)Nc2ccc3c(c2)OCCO3)cc1 | inconclusive: 0.708 µM [inhibitor, full curve, poor fit] |
| CN(C(=O)c1cccc(NC(=O)Cc2cccc(NC(=O)C3CCN(C(=O)C4CCCCC4)CC3)c2)c1)C1CCC1 | inactive |
| Cn1nc(-c2ccncc2)nc2c(=O)n(C)c(=O)nc1-2 | active: 1.26 µM |
| CC(C)Nc1nnc(SCC(=O)N2CCN(C(=O)c3ccco3)CC2)s1 | inconclusive: 15.8 µM [inhibitor, single point] |
| CCN1CCN(Cc2ccc(NC(=O)c3ccc(C)c(NC(=O)c4cccc5[nH]ccc45)c3)cc2C(F)(F)F)CC1 | inconclusive: 31.6 µM [inhibitor, single point] |
| COc1cc(NC(=O)C2=C(N3CCOCC3)/C(=C/c3ccc(Cl)cc3)CC2)cc(OC)c1OC | inconclusive: 15.8 µM [inhibitor, single point] |
| [O-][N+]1=c2ccc(Nc3ccccc3)cc2=NC12CCCCC2 | active: 6.31 µM |
| CO[C@H]1/C=C/O[C@@]2(C)Oc3c(C)c(O)c4c(O)c(c(C=NN5CCN(C)CC5)c(O)c4c3C2=O)NC(=O)/C(C)=C\C=C\[C@H](C)[C@H](O)[C@@H](C)[C@@H](O)[C@@H](C)[C@H](OC(C)=O)[C@@H]1C | inactive |
| COCCN(C(=O)COC(=O)c1c(C)nn(-c2ccccc2)c1C)c1c(N)n(Cc2ccccc2)c(=O)[nH]c1=O | inactive |
| CCc1cc2c(=O)n(Cc3ccco3)c(SCC(=O)NCC3CCCO3)nc2s1 (stereo not given) | inactive |
| CCOc1ccc(-n2nc(CO)c(C(=O)NCc3ccccn3)n2)cc1 | inconclusive: 0.112 µM [inhibitor, full curve, poor fit] |
| Cn1c(=O)c(N=O)c(N)n(Cc2ccccc2)c1=S | inconclusive: 1.58 µM [inhibitor, partial curve, poor fit] |
| CN(C)c1ccc(C=Nc2ccc(N(C)C)cc2)cc1 | inconclusive: 35.5 µM [inhibitor, partial curve, poor fit] |
| CCN(CC)C(=O)[C@H]1C[C@H](CC(=O)NC(C)(C)C)C(=O)N2CCc3c([nH]c4ccc(Cl)cc34)[C@]12C | inconclusive: 35.5 µM [inhibitor, single point] |
